Source: PubChem BioAssay AID1745845 (National Center for Advancing Translational Sciences (NCATS), 2022)
Hit rate of the full screen: of about 360,000 compounds, about 2,600 (0.72%) were called active. The shares of active, inactive and inconclusive entries below differ from those in the screen. The call rests on the fitted dose curve; in most records, active means well fitted inhibition curve with a large enough effect; inconclusive means small, poorly fitted or top-dose-only effect; inactive means no such curve, though single readings can be large or run the other way. Potencies beside an inconclusive call are fits to weak or partial responses and may not hold up.
Potency means the concentration at half of the fitted maximal effect; tags describe the fitted curve by direction and shape.

Experiment: Primary qHTS for Inhibitors of ATXN expression; further: nearly all actives have a fitted effect of over 55% in size
Conditions: HEK-293 ATXN2-luciferase reporter, luminescence, 24 h; series mostly up to 57 µM
Summary of the method: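 qHTS (up to 57 uM final) was run with 24 h compound exposure of reporter cells at 37 °C. Each well was multiplexed: SteadyGlo luminescence measured ATXN2-luciferase expression after a fluorogenic Gly-Phe-AFC viability readout (25 uM final).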
For O=S(=O)(CCN1CCN(C(c2ccccc2)c2ccccc2)CC1)C(F)(F)F, the Potency was inconclusive: 39.8 µM [inhibitor, single point].
For Cc1cc(NC(=O)NC(=O)c2ccc(F)cc2F)n[nH]1, the Potency was inconclusive: 25.1 µM [inhibitor, single point].
For COc1cccc(NC(=O)CCc2nc(-c3ccc(C(C)(C)C)cc3)no2)c1, the Potency was inconclusive: 0.316 µM [inhibitor, full curve].
For CCN(CC)S(=O)(=O)c1cc(NC(=O)Cc2ccc(S(=O)(=O)N3CCOCC3)s2)ccc1Cl, the Potency was inconclusive: 28.2 µM [inhibitor, partial curve, poor fit].
In the case of CCOc1ccc(NC(=O)CSc2nc(-c3cccc(Cl)c3)nc3c2Cc2c(CO)cnc(C)c2O3)cc1, the Potency is reported as “inactive”.
In the case of O=C(CSc1ccccc1C(=O)NCc1ccccc1)NC12CC3CC(CC(C3)C1)C2, the Potency is reported as “inactive”.
For Cc1noc(C)c1NC(=O)N(C)C[C@@H]1Oc2ncc(Br)cc2C(=O)N([C@@H](C)CO)C[C@@H]1C, the Potency was “inactive”.
For CCCCCc1c(Cc2ccccc2)ncn1CCc1ccccc1OC, the Potency was inconclusive: 20 µM [inhibitor, partial curve, poor fit].
In the case of CC(C)N(C(=O)[C@H]1CC(CC(=O)NCCC2=CCCCC2)C(=O)N2CCc3c([nH]c4ccccc34)[C@]12C)C(C)C (some centres undefined), the Potency is reported as inconclusive: 39.8 µM [inhibitor, single point].
In the case of COc1ccccc1N(C)S(=O)(=O)c1ccc(C(=O)NNC(=O)c2ccccc2O)cc1, the Potency is reported as inconclusive: 17.8 µM [inhibitor, partial curve].
With CNC(=S)NNC(=O)c1sc2cc(C(F)(F)F)cnc2c1-c1ccccn1 the Potency was “inactive”.
For O=C(NC(NC(=S)Nc1cc(Cl)ccc1Cl)C(Cl)(Cl)Cl)c1ccco1 (centres undefined), the Potency was inconclusive: 35.5 µM [inhibitor, single point].
For O/N=C/c1cn(-c2ccccc2)nc1-c1cccnc1, the Potency was “inactive”.
In the case of CCOc1ccc(C(=O)N/N=C/c2cc(Cl)ccc2[N+](=O)[O-])cc1, the Potency is reported as “inactive”.
For Cc1ccc2c(CC(=O)Nc3cccc(C(F)(F)F)c3)coc2c1, the Potency was inconclusive: 17.8 µM [inhibitor, single point].
For Fc1ccc2[nH]c3c(NCc4ccccc4)ncnc3c2c1, the Potency was inconclusive: 33.6 µM [inhibitor, partial curve, poor fit].
In the case of CC(=NNc1ccc2ccccc2n1)c1ccccc1O, the Potency is reported as inconclusive: 37.7 µM [inhibitor, single point].
In the case of Cc1nn(-c2ccccc2)c2nc(C3CC3)cc(C(=O)Nc3ccc(F)cc3)c12, the Potency is reported as “inactive”.
For CCc1nc2c(OCCC3CCCCC3)cccn2c1N(C)C(=O)c1cccs1, the Potency was inconclusive: 31.6 µM [inhibitor, single point].
